From PMC6212790 come the findings set out here.

This is one part of the list. At the low end of the ranking the order means little.

The assay addresses T1, GST-Rok (full length) (UniProt O34857).
T1 sequence: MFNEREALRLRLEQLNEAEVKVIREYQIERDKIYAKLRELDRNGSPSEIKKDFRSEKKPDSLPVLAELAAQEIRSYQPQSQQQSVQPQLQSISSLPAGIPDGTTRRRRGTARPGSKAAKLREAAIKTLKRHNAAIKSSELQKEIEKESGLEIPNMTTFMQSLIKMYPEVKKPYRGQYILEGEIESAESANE
Briefly: protein binding microarray.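 Further: rank score from −0.5 (least bound) to 0.5 (best bound).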 The following applies: Rok is a gene silencer of Bacillus subtilis; high values mean tight binding; most listed sequences are background and not binding sites; double strand, one strand shown.
With CTGTCTCA, the binding signal is -0.0922 E-score.
For ACCCTGCA the value was -0.0592 E-score; for ATAAGGAG, -0.0177 E-score.
Then GGCATCAA, with -0.252 E-score; and GACGGAGC, with -0.285 E-score; and CATAGCTA, with 0.306 E-score.
Turning to GCAACAAC, the binding signal worked out at 0.021 E-score.
Then AACGTGTC, with 0.0292 E-score; and CCTAACCG, with -0.261 E-score; and AGATGCCT, with -0.171 E-score.
With AAACCCTG, the binding signal was -0.208 E-score.
Then AGGTCATG, with 0.0996 E-score.
With TCTCAAAA, the binding signal came to 0.116 E-score.
Then AGTGCCAG, with -0.325 E-score; and ACGAAGAG, with 0.0403 E-score; and GGTCACTA, with -0.0958 E-score.
For AGCCTTCG the value was -0.27 E-score; for CCGGACTC, -0.22 E-score.
For CGGGCAAG the value was -0.219 E-score; for AATGCTCA, -0.131 E-score; for AGCAGCTC, -0.203 E-score.
As to GCCAGACA, the binding signal is -0.349 E-score.
For AAGACGGA the value was -0.174 E-score; for TTACGTAA, 0.283 E-score; for GACGAATC, -0.0614 E-score.
Then CACGCGCC, with -0.32 E-score.
Then GGCTCTCA, with -0.378 E-score.
In the case of ACATACGG, the binding signal is 0.197 E-score.
Then GTGTGGAA, with 0.00658 E-score; and AACTCAAA, with 0.0687 E-score; and ATGTAACC, with -0.000591 E-score.
For CTATCCCC the value was -0.304 E-score.
For TATTGCAA the value was 0.253 E-score; for AAAACAAG, -0.0403 E-score; for AAAAATGT, 0.132 E-score.
AGGTGCGG: the binding signal is -0.321 E-score.
Then CTTTTAAC, with -0.0573 E-score.
For AGTCGTAA the value was 0.217 E-score; for ATGGTACA, 0.206 E-score.
Then CGAGTGGC, with -0.162 E-score; and TCCTGACA, with -0.0875 E-score; and AGTAAGAT, with 0.272 E-score.
On to GATAGAGA, for which the binding signal was 0.0391 E-score.
For TCTTTACA the value was 0.237 E-score.
Sequence CAGTCGGA showed a binding signal of -0.287 E-score.
For GATAAAGC the value was -0.099 E-score; for ATCAACGC, 0.109 E-score; for ACTTCCAT, 0.0223 E-score.
Then CCTTTCAA, with -0.236 E-score; and GCCACCGC, with -0.105 E-score.
Then ATATTCGC, with 0.129 E-score.
In turn, ACCACCAA returned a binding signal of 0.0478 E-score.
Take AGTACGAC: the binding signal came to 0.0928 E-score.
Turning to CTCGAATC, the binding signal stood at 0.0776 E-score.
For CTATGCGA the value was 0.103 E-score; for ATAGCAAG, 0.23 E-score.
Then CCTCTGTC, with -0.148 E-score; and TATGAGAA, with 0.0958 E-score; and GGGTAAAC, with 0.0448 E-score.
Consider TGCAAGCA, for which the binding signal is -0.276 E-score.
For ATTGCAAG the value was 0.0536 E-score; for TCTTACCA, 0.208 E-score; for CAGAGACG, -0.203 E-score.
Then GTCCATTA, with 0.12 E-score.
For ACGCGAGA the value was -0.0956 E-score; for AAGGTCAC, -0.084 E-score; for AAGGGACA, -0.183 E-score.
Turning to AAAATGCA, the binding signal amounted to 0.0508 E-score.
As to CAGAAGGG, the binding signal is -0.29 E-score.
In turn, AGGGACTA gave a binding signal of -0.206 E-score.
Sequence TGTAATAA gave a binding signal of 0.241 E-score.
For AATTACCC the value was 0.215 E-score; for CACTGCAG, 0.074 E-score; for GAAGACGA, -0.276 E-score.
On to GCCATACA, for which the binding signal was determined as 0.19 E-score.
Then CCATGCAA, with -0.112 E-score; and ACATAGGG, with 0.0564 E-score.
Consider GTCTAAAA, for which the binding signal was -0.122 E-score.
Then CGAGTCCA, with -0.256 E-score; and ACGATCTG, with -0.0392 E-score; and CCTCGTTC, with -0.135 E-score.
For TACACAAA the value was 0.178 E-score.
AAAAATTG showed a binding signal of 0.0557 E-score.
TAGGGCAA came in with a binding signal of -0.0175 E-score.
In turn, AGGCTCGA returned a binding signal of -0.0603 E-score.
Then GTCCGCCA, with -0.33 E-score; and ATTGTCTG, with -0.142 E-score.
As to CCGTCAAG, the binding signal is -0.196 E-score.
Regarding GAATCCGC, the binding signal is -0.0597 E-score.
Sequence GCGAGTCA displayed a binding signal of -0.145 E-score.
ATTGTTTG showed a binding signal of 0.117 E-score.
For GAGAATGC the value was 0.042 E-score; for ATCGGGCG, -0.172 E-score.
For the sequence GATAGTAC, the binding signal came out at 0.18 E-score.
For CCCGCAGC the value was -0.349 E-score; for AGCTTCAG, -0.286 E-score; for GGGCACTA, -0.245 E-score.
In turn, CCCAACCA returned a binding signal of -0.142 E-score.
Then ACCGAGCC, with -0.132 E-score; and AGAACAAG, with -0.0116 E-score; and AGCCCACC, with -0.414 E-score.
For ACCATTGG the value was -0.146 E-score.
For AAGTAGGT the value was 0.303 E-score.
Regarding CACTGGGC, the binding signal was -0.332 E-score.
CGCCCATC: the binding signal is -0.255 E-score.
Then ATTGTCAA, with -0.0429 E-score.
In turn, ATGACAAA came in with a binding signal of 0.192 E-score.
For AAACTGGC the value was -0.0579 E-score.
For AAATCTTA the value was 0.134 E-score.
Then CCTGCGCA, with 0.0304 E-score.
AAAGTCGC registered a binding signal of 0.0343 E-score.
Then AAAGCCAA, with -0.143 E-score; and ACTCATCT, with -0.0608 E-score.
Then AATGGACC, with -0.0357 E-score; and GAATGCAA, with -0.0116 E-score.
For ATGAGGAC the value was -0.244 E-score; for ATGAGGGC, -0.183 E-score; for TGAGCGAA, 0.0392 E-score.
For ACGCGCAA, the binding signal amounted to 0.0495 E-score.
Then AATGAACA, with 0.159 E-score.
With CTGGTACA, the binding signal turned out to be 0.21 E-score.
For CCCCGCAA the value was -0.272 E-score; for ATGCCTCC, -0.253 E-score; for ACGGCCCA, -0.32 E-score.
For ACGGGTAA the value was -0.00525 E-score; for AGAGCCCA, -0.362 E-score.
For AACAGGGG the value was -0.255 E-score.
In turn, GGGTAACA yielded a binding signal of 0.0142 E-score.
ACGGTTAT yielded a binding signal of 0.294 E-score.
For AGTTGGTC the value was -0.276 E-score; for ACTGTGAG, 0.151 E-score; for CGCAAAGC, -0.153 E-score.
Turning to CTTTATCC, the binding signal is -0.0987 E-score.
For CTGGCTAC the value was -0.105 E-score; for AATCGGAC, 0.023 E-score.
In turn, CCGGGAGG showed a binding signal of -0.296 E-score.
Then GGACGTTA, with -0.0674 E-score; and CGAAAAAG, with -0.00929 E-score; and GACAAAAA, with 0.0475 E-score.
Then GCACAAAC, with 0.0295 E-score; and AAGGATCT, with -0.0752 E-score; and ACGGGCAG, with -0.257 E-score.
For AGTCCTGC the value was -0.246 E-score; for ACGCCGAT, 0.00156 E-score; for GTCGAGCA, -0.118 E-score.
Take GGCCGAGA: the binding signal is -0.261 E-score.
For AGCTATCC the value was 0.0864 E-score; for GATTGGAA, -0.0483 E-score.
In turn, CTACTTAA gave a binding signal of 0.372 E-score.
Then AGACAATC, with 0.096 E-score; and CTATTTTC, with 0.344 E-score.
For AAGGTTTC the value was -0.202 E-score; for AGGTTATC, 0.0915 E-score; for CACCATAC, 0.0395 E-score.
For ACAGTACG the value was 0.142 E-score; for AATCACCA, -0.078 E-score.
On to AGTACTTG, for which the binding signal came to 0.297 E-score.
For the sequence ACCCACTC, the binding signal was 0.0222 E-score.
Then ATGCCGGA, with -0.13 E-score.
For GCTTCAGA the value was -0.348 E-score.
Then CAGGCGGC, with -0.38 E-score; and TAGGATGA, with 0.123 E-score; and GGGAAGAA, with -0.152 E-score.
Consider AGAAAGAT, for which the binding signal amounted to 0.0756 E-score.
For ACACAGAT the value was 0.0555 E-score; for GCACACAC, -0.177 E-score; for CAGTGTAG, 0.233 E-score.
For ATTAGTCG the value was 0.0487 E-score.
For ACATCATC the value was -0.0524 E-score.
AACTATAC had a binding signal of 0.33 E-score.
Then CAGGTGAG, with -0.216 E-score; and AAATTTCG, with 0.216 E-score.
